Results are given in words; binding and its absence hold for the method and conditions named. Binding seen in cells or lysates may run through a third protein. Some results given as binding are weak or reduced against the parent protein; the word gives no strength. Tags and fused reporters may be left off the sequences shown. Blank lines part the entries; values can stand above or below the molecule they belong to.
Tests used:
[1] = target: T1, BIN2-nLUC (Arabidopsis thaliana) (UniProt Q39011); assay: split reporter; split-luciferase complementation in Nicotiana benthamiana leaves; nLUC and cLUC fusions co-infiltrated 1:1; for BIN2-BES1 also with Myc-phyA, Myc-phyB or Myc-GUS co-expressed (1:1:1)
T1 sequence: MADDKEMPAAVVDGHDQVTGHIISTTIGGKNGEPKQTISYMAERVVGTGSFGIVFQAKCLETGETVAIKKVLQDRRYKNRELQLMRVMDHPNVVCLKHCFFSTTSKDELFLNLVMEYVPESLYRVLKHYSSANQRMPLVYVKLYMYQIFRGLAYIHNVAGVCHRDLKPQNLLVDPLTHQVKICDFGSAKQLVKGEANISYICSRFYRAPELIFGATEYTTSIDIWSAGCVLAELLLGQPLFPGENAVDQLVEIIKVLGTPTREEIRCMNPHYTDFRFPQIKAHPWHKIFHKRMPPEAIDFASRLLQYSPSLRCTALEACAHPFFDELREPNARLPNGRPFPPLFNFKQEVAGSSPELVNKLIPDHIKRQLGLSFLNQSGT

By UniProt entry, the sequences of proteins in these tests, tags left out.
UniProt P14713: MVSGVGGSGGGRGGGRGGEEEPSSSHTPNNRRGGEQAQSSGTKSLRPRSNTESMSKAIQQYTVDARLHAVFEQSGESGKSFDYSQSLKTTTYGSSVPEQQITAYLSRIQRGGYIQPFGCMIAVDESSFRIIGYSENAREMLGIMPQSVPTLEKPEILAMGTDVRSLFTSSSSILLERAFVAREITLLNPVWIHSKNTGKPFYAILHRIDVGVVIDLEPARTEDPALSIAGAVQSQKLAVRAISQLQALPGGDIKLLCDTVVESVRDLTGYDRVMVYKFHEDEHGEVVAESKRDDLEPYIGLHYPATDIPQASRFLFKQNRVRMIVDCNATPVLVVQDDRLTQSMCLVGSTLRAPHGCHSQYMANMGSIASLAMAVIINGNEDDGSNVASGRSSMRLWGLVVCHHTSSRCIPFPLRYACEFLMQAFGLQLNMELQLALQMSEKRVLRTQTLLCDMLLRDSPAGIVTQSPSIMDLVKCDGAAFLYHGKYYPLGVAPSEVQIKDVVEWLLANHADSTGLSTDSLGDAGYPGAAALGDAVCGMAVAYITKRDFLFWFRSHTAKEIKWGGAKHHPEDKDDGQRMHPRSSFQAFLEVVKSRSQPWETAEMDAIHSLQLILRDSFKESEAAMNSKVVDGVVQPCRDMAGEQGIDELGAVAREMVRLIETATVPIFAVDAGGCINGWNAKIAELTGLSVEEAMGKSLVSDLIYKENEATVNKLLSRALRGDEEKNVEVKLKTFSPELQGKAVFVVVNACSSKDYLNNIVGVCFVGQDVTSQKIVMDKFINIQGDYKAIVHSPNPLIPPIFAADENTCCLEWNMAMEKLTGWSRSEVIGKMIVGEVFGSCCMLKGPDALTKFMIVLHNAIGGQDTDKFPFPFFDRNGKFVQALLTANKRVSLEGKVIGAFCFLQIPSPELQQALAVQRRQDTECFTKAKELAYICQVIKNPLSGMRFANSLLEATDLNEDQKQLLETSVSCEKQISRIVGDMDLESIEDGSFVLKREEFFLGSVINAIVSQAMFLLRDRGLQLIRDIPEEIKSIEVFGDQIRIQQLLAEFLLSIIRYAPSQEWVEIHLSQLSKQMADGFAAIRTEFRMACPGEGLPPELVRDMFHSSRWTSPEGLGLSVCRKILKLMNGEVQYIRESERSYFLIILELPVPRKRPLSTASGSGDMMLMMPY

[2] = target: T2, GST-BIN2 (Arabidopsis thaliana) (UniProt Q39011); assay: condition: only extract of dark-adapted seedlings (no red light); pull-down; semi-in vivo: as a3, but extract of seedlings that remained in darkness for 30 min; only the target purified
T2 sequence: T1 sequence

[3] = target: T2, GST-BIN2 (Arabidopsis thaliana); assay: pull-down; semi-in vivo: GST-BIN2 on MagneGST Glutathione Particles, washed with lysis buffer (50 mM Tris-HCl pH 7.5, 150 mM NaCl, 0.2% Triton X-100), incubated 1 h with extract of dark-adapted seedlings exposed to far-red (10 umol/m2/s, phyA-YFP-OX) or red light (50 umol/m2/s, Myc-phyB-OX) for 30 min; anti-GFP or anti-Myc blot; only the target purified
[4] = target: T2, GST-BIN2 (Arabidopsis thaliana); assay: condition: only extract of dark-adapted seedlings (no far-red light); pull-down; semi-in vivo: as a3, but extract of seedlings that remained in darkness for 30 min; only the target purified

Molecule: Myc-phyB (from UniProt P14713 1-1172) (receptor)
- binding [2]: no binding
- binding [3]: binds

B1: cLUC-phyA (receptor, UniProt P14712 1-1122)
chain: MSGSRPTQSSEGSRRSRHSARIIAQTTVDAKLHADFEESGSSFDYSTSVRVTGPVVENQPPRSDKVTTTYLHHIQKGKLIQPFGCLLALDEKTFKVIAYSENASELLTMASHAVPSVGEHPVLGIGTDIRSLFTAPSASALQKALGFGDVSLLNPILVHCRTSAKPFYAIIHRVTGSIIIDFEPVKPYEVPMTAAGALQSYKLAAKAITRLQSLPSGSMERLCDTMVQEVFELTGYDRVMAYKFHEDDHGEVVSEVTKPGLEPYLGLHYPATDIPQAARFLFMKNKVRMIVDCNAKHARVLQDEKLSFDLTLCGSTLRAPHSCHLQYMANMDSIASLVMAVVVNEEDGEGDAPDATTQPQKRKRLWGLVVCHNTTPRFVPFPLRYACEFLAQVFAIHVNKEVELDNQMVEKNILRTQTLLCDMLMRDAPLGIVSQSPNIMDLVKCDGAALLYKDKIWKLGTTPSEFHLQEIASWLCEYHMDSTGLSTDSLHDAGFPRALSLGDSVCGMAAVRISSKDMIFWFRSHTAGEVRWGGAKHDPDDRDDARRMHPRSSFKAFLEVVKTRSLPWKDYEMDAIHSLQLILRNAFKDSETTDVNTKVIYSKLNDLKIDGIQELEAVTSEMVRLIETATVPILAVDSDGLVNGWNTKIAELTGLSVDEAIGKHFLTLVEDSSVEIVKRMLENALEGTEEQNVQFEIKTHLSRADAGPISLVVNACASRDLHENVVGVCFVAHDLTGQKTVMDKFTRIEGDYKAIIQNPNPLIPPIFGTDEFGWCTEWNPAMSKLTGLKREEVIDKMLLGEVFGTQKSCCRLKNQEAFVNLGIVLNNAVTSQDPEKVSFAFFTRGGKYVECLLCVSKKLDREGVVTGVFCFLQLASHELQQALHVQRLAERTAVKRLKALAYIKRQIRNPLSGIMFTRKMIEGTELGPEQRRILQTSALCQKQLSKILDDSDLESIIEGCLDLEMKEFTLNEVLTASTSQVMMKSNGKSVRITNETGEEVMSDTLYGDSIRLQQVLADFMLMAVNFTPSGGQLTVSASLRKDQLGRSVHLANLEIRLTHTGAGIPEFLLNQMFGTEEDVSEEGLSLMVSRKLVKLMNGDVQYLRQAGKSSFIITAELAAANK
- binding [1]: binds

More lines, now with the values ahead:

- binding [1]: binds
Molecule: cLUC-phyB (from UniProt P14713 1-1172) (receptor)

- binding [4]: no binding
- binding [3]: binds
B2: phyA-YFP (receptor, UniProt P14712 1-1122)
chain: B1 chain

From publication PMC9005995
